Results on 52 compounds are retold here after PubChem BioAssay AID1347073 (National Center for Advancing Translational Sciences (NCATS), 2019).

In all, about 45,000 compounds went through this assay and about 200 (0.44%) were called active. About 7% were inconclusive and are not listed. Calls come from the whole dose curve; as a rule, active = well fitted activation curve with a large enough effect; inconclusive = small, poorly fitted or top-dose-only effect; inactive = no such curve, though single readings can be large or run the other way. The list shows a part of the results.
Potency is the fitted concentration of half-maximal effect.

The assay is described as follows: qHTS of TDP-43 Inhibitors: NCGC Sytravon Library Screen. For growth rescue (activation): 0% is about no effect. Note: nearly all actives have a fitted effect of over 55% in size. The settings on record: yeast TDP-43 toxicity rescue, BacTiter-Glo growth, 24 h; series mostly up to 46.1 µM; growth rescue (activation): at the top concentration. Summed up: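 TDP-43-expressing yeast, pregrown in raffinose, seeded at OD600 0.02 in galactose medium with compound for 24 hr at 30 deg C. Growth read by BacTiter-Glo luminescence, so rescue of toxicity appears as activation.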
Background: qHTS replaces the single test concentration by a dilution series.
For `Cc1ccc(S(=O)(=O)CCC(=O)N(C)C2CCCCC2)cc1`, the “growth rescue (activation)” value is inactive: 11%. On the same count and under the same terms, the same measure for `CCOc1ccc(NC(=O)CSc2nnc(C3CC3)n2C)cc1`: inactive: -3.61%. Same read-out and setting: the figure for `O=C(COc1ccc2ccc(=O)oc2c1)NC1CCS(=O)(=O)C1` (configuration not stated) is inactive: -5.45%. Same read-out and setting: the same measure for `Cc1ccccc1C(=O)Nc1sc2c(c1C(=O)NCc1ccco1)CCC(C(C)(C)C)C2` (configuration not stated): inactive: 14.4%. As to `Cc1ccc2nc3c(cc(C(=O)NCc4ccco4)c(=N)n3Cc3ccco3)c(=O)n2c1`, the “growth rescue (activation)” value is inactive: 0.758%. The same measure, in the same setting: the same measure for `CC1CCCN(C(=O)Nc2cccc(NC(=O)N3CCCC(C)C3C)c2)C1C` (configuration not stated): inactive: 13.3%; for `CC(=O)N1CCN(S(=O)(=O)c2cccc(C(=O)NCc3ccc(F)cc3)c2)CC1`: inactive: 12.6%; for `CN(CCC#N)C(=O)COC(=O)c1ccccc1OCc1ccccc1Cl`: inactive: 18.4%. Same read-out and setting: the figure for `C=CCOc1ccc(C2/C(=C(/O)c3ccc(OC)cc3)C(=O)C(=O)N2CCN2CCNCC2)cc1` (configuration not stated) is inactive: 10.9%; for `CCOC(=O)c1cc(CC)sc1/N=C/C1C(=O)CCCC1=O` it is inactive: 35.7%; for `Cc1c(NS(=O)(=O)c2cccc(C(=O)N3CCCC3)c2)c(=O)n(-c2ccccc2)n1C` it is inactive: 33.4%. On the same count and under the same terms, the figure for `CC(=O)NC(CC(=O)NCC(=O)Nc1ccc(F)c(F)c1)c1ccccc1` (configuration not stated) is inactive: 4.85%.

Regarding `O=[N+]([O-])c1ccc(O)c(C=Nc2cccc3ncccc23)c1`, the “growth rescue (activation)” value was inactive: -32.2%. Same read-out and setting: the same measure for `COc1ccc(NC(=O)NC2(C(=O)N3CCCC3)CCCCC2)cc1`: inactive: -1.42%; for `C/C(=N/NC(=O)CN1CCN(Cc2ccccc2Cl)CC1)c1ccncc1`: inactive: 14.2%. In the case of `CC(=O)c1cc2cccc(OC3(C)CCN(Cc4ccc5ccccc5c4)C3)c2o1` (configuration not stated), the “growth rescue (activation)” value was inactive: 3.38%. Same read-out and setting: the figure for `CC(C)CC(C(=O)OCC(=O)c1c(N)n(C)c(=O)n(C)c1=O)N1C(=O)c2ccccc2C1=O` (configuration not stated) is inactive: -6.54%. For the compound `O=c1[nH]c(CNCc2cccnc2)nc2ccccc12`, the “growth rescue (activation)” value is inactive: 0.688%. On the same count and under the same terms, the figure for `CN(Cc1cccnc1)C(=O)CC1C(=O)NCCN1Cc1ccc(-c2ccccc2)cc1` (configuration not stated) is inactive: 15.2%; for `CCC(C)NC(=O)CCn1c(-c2ccccc2)cc(C(C)=O)c1C` (configuration not stated) it is inactive: -5.58%; for `C=CCSc1nc2sc3c(c2c(=O)[nH]1)CC(C)(C)OC3` it is inactive: -3.72%. On the same count and under the same terms, the figure for `COc1cc(/C=C/C(=O)O)cc(S(=O)(=O)Nc2ccc3c(c2)OCO3)c1OC` is inactive: -21.7%. Same read-out and setting: the figure for `O=C(O)COc1ccc(/C=N/NC(=O)c2cn(-c3ccccc3)nc2-c2ccccc2)cc1` is inactive: 5%; for `CN(C)/C=C\C(=C/C(=O)C(F)(F)F)Nc1ccccc1Oc1ccccc1` it is inactive: -1.67%. As to `COCC(C)OC(=O)c1c(N)n(CCCN2CCOCC2)c2nc3ccccc3nc12` (configuration not stated), the “growth rescue (activation)” value is inactive: -5.66%.

Take `COc1ccc(C)cc1S(=O)(=O)N(C)CC(=O)NC1CCCCCC1`: the “growth rescue (activation)” value was inactive: -6.39%. The same measure, in the same setting: the figure for `Cc1cc2cc(CN(Cc3ccco3)C(=O)C3CCCCC3)c(=O)[nH]c2cc1C` is inactive: -17.4%; for `CC(C)C(=O)Nc1ccc(N2CCOCC2)c(S(=O)(=O)Nc2ccccc2Cl)c1` it is inactive: -7.24%; for `O=C1OC(/C(=C\NCc2ccccc2)[N+](=O)[O-])c2ccccc21` (configuration not stated) it is inactive: 0.546%.

As to `Cc1ccc(S(=O)(=O)NN2C(=O)c3ccccc3NC2c2cccc(O)c2)cc1` (configuration not stated), the “growth rescue (activation)” value was inactive: 4.57%. The same measure, in the same setting: the figure for `CC(C)c1ccc(N(C(=O)CNC(=O)c2ccco2)C(C(=O)NC2CCCC2)c2ccncc2)cc1` (configuration not stated) is inactive: 10.6%.

Consider `CCc1nc2ccc(C(=O)NCCC(C)C)cn2c1N(C)Cc1ccc(OC)cc1`, for which the “growth rescue (activation)” value is inactive: 15.5%. Same read-out and setting: the figure for `CC1CN(C(=O)COC(=O)c2ccc(S(=O)(=O)N(C)C)cc2)CC(C)O1` (configuration not stated) is inactive: 10.8%; for `CC(C)CNC(=O)CN(c1cccc(Cl)c1)S(C)(=O)=O` it is inactive: -9.56%; for `COc1cccc(C(=O)NCCCNC(=O)c2cccnc2)c1` it is inactive: 0.216%. Same read-out and setting: the same measure for `O=[N+]([O-])c1ccccc1Oc1ccc(C(F)(F)F)cn1`: inactive: 4.2%; for `COc1ccc(NC(=S)N2CCNC(=O)C2CC(=O)Nc2ccc(C)cc2)cc1` (configuration not stated): inactive: 29.5%.

For the compound `O=C(CSc1n[nH]c(=O)n1C1CC1)Nc1ccc(OC(F)(F)F)cc1`, the “growth rescue (activation)” value is inactive: 9.06%.

On to `Cc1onc(-c2c(Cl)cccc2Cl)c1C(=O)Nc1ccc(Cl)cn1`, for which the “growth rescue (activation)” value was inactive: 21%. Still for that read-out and setting: the figure for `CC1CCN(CC(=O)Nc2cccc(C(=O)Nc3cccc(C(F)(F)F)c3)c2)CC1` is inactive: 8.36%. Same read-out and setting: the figure for `COC(=O)COc1ccccc1/C=C1/NC(=O)NC1=O` is inactive: 19.8%; for `CC1CCCN(C(=O)CCNC(=O)Cn2cnc3ccccc3c2=O)C1` (configuration not stated) it is inactive: 2.81%. Regarding `CCC1CCCCN1CCCNC(=O)c1ccc2c(=O)n(CCOC)c(=O)[nH]c2c1` (configuration not stated), the “growth rescue (activation)” value was inactive: 6.78%. On to `COc1ccc(C=C2C(=O)c3ccccc3C2=O)cc1O`, for which the “growth rescue (activation)” value was inactive: -31%. Turning to `CCCS(=O)(=O)N1CCN(S(=O)(=O)c2ccccc2[N+](=O)[O-])CC1`, the “growth rescue (activation)” value was inactive: -4.02%. Regarding `COc1ccc(NCc2ccc([N+](=O)[O-])s2)c(OC)c1`, the Potency is active: 12.6 µM.

As to `CC1(C)C(=O)C2(CCCCC2)C(=O)OC1c1cccn1-c1ccc([N+](=O)[O-])cc1` (configuration not stated), the “growth rescue (activation)” value is inactive: 14.5%. On the same count and under the same terms, the same measure for `CC(=O)Nc1nnc(SCC(=O)NC2CC2)s1`: inactive: 4.46%; for `Nc1ccc(C(=O)NCCCSc2ccccc2)cc1[N+](=O)[O-]`: inactive: 0.956%; for `COc1cccc(C2CC(=O)C3=C(C2)Nc2ccccc2N(C(=O)CCC(=O)O)C3c2ccc(F)cc2)c1` (configuration not stated): inactive: -9.18%. Same read-out and setting: the same measure for `COc1cccc(C(NC(C)=O)c2nc(-c3cccc(C(C)C)c3)cs2)c1` (configuration not stated): inactive: 22.6%; for `O=C(NC(CO)Cc1ccc([N+](=O)[O-])cc1)C(Cl)Cl` (configuration not stated): inactive: -25%.
